# The full ranking holds about 110,000 compounds; the median of “z-score” is about -0.1, and the highest 2% start at about 2. The list shows a part of the results. Active and inactive are the calls of the source.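 Rule for the calls: active = z-score in the third read window above 3 or below -3; inactive = the rest.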
# Target: Metabotropic glutamate receptor 8 (Rattus norvegicus) (UniProt P70579)
# Experiment: rat mGluR8 modulators via GIRK flux, primary screen, cell-based, thallium flux, HTS (AID 488969)
# Details: HEK293 rat mGluR8, GIRK (G protein-gated inwardly rectifying potassium channel) thallium flux, FluoZin2; at 10 µM; stronger effect = higher value; submaximal glutamate (EC20) added with thallium
# UniProt P70579, sequence (P70579 whole entry, looked up): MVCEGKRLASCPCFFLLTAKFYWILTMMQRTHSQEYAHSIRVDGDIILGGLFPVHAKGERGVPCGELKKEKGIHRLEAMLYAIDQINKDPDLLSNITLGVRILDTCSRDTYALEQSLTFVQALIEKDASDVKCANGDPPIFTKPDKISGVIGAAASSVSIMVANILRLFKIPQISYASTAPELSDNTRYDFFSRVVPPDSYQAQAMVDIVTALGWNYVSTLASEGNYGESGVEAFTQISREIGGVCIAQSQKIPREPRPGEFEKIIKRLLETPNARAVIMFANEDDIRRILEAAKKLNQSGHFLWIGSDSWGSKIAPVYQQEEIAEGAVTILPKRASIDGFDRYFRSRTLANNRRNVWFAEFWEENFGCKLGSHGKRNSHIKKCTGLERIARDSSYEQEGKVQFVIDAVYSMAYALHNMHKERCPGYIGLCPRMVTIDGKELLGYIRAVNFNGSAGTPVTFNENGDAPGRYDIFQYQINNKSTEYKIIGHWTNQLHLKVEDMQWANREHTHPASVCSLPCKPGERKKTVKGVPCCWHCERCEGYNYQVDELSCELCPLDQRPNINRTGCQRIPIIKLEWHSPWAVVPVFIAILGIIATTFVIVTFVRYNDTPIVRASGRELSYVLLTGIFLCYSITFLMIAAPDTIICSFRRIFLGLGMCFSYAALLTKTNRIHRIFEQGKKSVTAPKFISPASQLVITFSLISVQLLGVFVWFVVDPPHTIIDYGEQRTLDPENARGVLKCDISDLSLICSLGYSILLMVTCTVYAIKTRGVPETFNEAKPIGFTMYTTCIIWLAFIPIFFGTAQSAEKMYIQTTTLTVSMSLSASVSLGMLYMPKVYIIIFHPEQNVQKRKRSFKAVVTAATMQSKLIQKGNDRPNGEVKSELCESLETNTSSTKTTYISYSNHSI
row,Structure (SMILES),z-score
1,COc1ccc(NC(=O)CC2C(=O)N(c3ccc(OC)cc3)C(=O)N2C(C)C)cc1 (stereo not given),0.0999
2,O=C(c1cnc(-c2ccccc2)s1)c1ccc(Cl)cc1Cl,-0.278
3,O=C(Cc1ccccc1)Nc1ccc2oc(-c3cccnc3)nc2c1,0.0373
4,Cc1ccc2nc(NCc3ccco3)c(C=NCc3ccco3)c(=O)n2c1,0.874
5,Cc1nc(=O)c(-c2ccccc2)c(C)n1-c1ccccc1C(=O)O,0.579
6,O=C(Nc1ccc(Cl)cc1)N(Cc1nnc2n1CCCCC2)c1ccccc1,-0.211
7,CCC(=O)N1c2ccc(S(=O)(=O)CCC(=O)NCc3ccc4c(c3)OCO4)cc2CC1C (stereo not given),-0.0251
8,CCCc1cc(-c2n[nH]c(=S)n2Cc2ccccc2)cs1,active: 4.6
9,O=C(NCCc1ccccn1)c1cccc(S(=O)(=O)N2CCCCCC2)c1,-0.13
10,CCOC(=O)N1CCN(c2ncnc3c2[nH]c2ccc(F)cc23)CC1,0.0532
11,O=C(CN1C(=O)NC2(CCCCCC2)C1=O)Nc1ccc(S(=O)(=O)N2CCOCC2)cc1,-0.0939
12,Cc1[nH]nc(SCC(=O)NC(C)c2ccccc2)c1[N+](=O)[O-] (stereo not given),-0.0398
13,O=C(CCS(=O)(=O)Cc1ccccc1)NCC1CCCO1 (stereo not given),0.391
14,CCOc1ccc2ccccc2c1CNCCN1CCOCC1,0.105
15,Cc1[nH]c2ccccc2c1C(=O)C(=O)NCCC1=CCCCC1,0.506
16,Clc1ccc2nc(C3CCN(Cc4nnnn4C4CCCCC4)CC3)[nH]c2c1,-0.461
17,COc1ccc(N2C(=O)CC2(C#N)c2ccc(OCc3ccccc3)cc2)cc1 (stereo not given),-0.272
18,COc1cccc(C(=O)Nc2ccc(C)cc2)c1,0.174
19,COc1cccc(CN(C)CC(=O)Nc2cc3oc4ccccc4c3cc2OC)c1,0.0498
20,O=C(O)CCCN=C1NC2(CCCC2)Cc2ccccc21,0.256
21,Cc1cc(-c2ccc(Cl)cc2)oc(=O)c1NC(=O)c1ccccc1,-0.0434
22,COc1ccc(S(=O)(=O)n2ccc(C)n2)cc1C,-0.988

row,Structure (SMILES),z-score
1,CCCCCCCCS(=O)c1sc2nc3c(cc2c1N)CCCC3 (stereo not given),-0.0105
2,Cc1ccc(CCNC(=O)CN2CCN(Cc3ccccc3F)C2=O)cc1,0.229
3,O=C(/C=N/O)NCC1CCNCC1,-0.961
4,COc1ccc(OC)c(NC(=O)COc2ccc(S(=O)(=O)NC(C)C)cc2)c1,-0.207
5,O=C(NC(NC(=S)Nc1ccccc1C(=O)O)C(Cl)(Cl)Cl)c1ccco1 (stereo not given),-0.106
6,Cc1onc(-c2ccccc2Cl)c1C(=O)Nc1ccc(OCC(=O)N2CCOCC2)cc1,-0.0377
7,CCc1nnc(NC(=O)c2c(C)nn(-c3ccccc3)c2Cl)s1,-0.322
8,O=C(NCc1ccco1)Nc1ccc2nsnc2c1,-0.135
9,O=C(NC(=S)N1CCOCC1)C12CC3CCC(CC(C3)C1)C2,0.454
10,Cc1ccc(N(CC(=O)NCc2ccc(F)cc2)S(=O)(=O)c2cccs2)cc1,-0.42
11,N#CC(C(=O)NC1CCCCC1)c1nc2ccccc2nc1N1CCN(c2ccccc2F)CC1 (stereo not given),0.0655
12,O=C(NCCCN1CCN(CCCNC(=O)c2ccc3c(c2)OCO3)CC1)c1ccc2c(c1)OCO2,-0.448
13,O=C(CSCc1ccc(Cl)cc1)Nc1nccs1,-0.765
14,COc1ccc(CC(=O)O/N=C(\N)Cc2cccc3ccccc23)cc1OC,-0.317
15,CC(C)NC(=S)Nc1ccc(Oc2ccccc2)cc1,1.68
16,CCOC(=O)CSc1nc2ccc(NC(=O)CSc3nnnn3Cc3ccccc3)cc2s1,1.23
17,CCOC(=O)c1cc2c(=O)n3cccc(C)c3nc2n(Cc2ccco2)c1=NC(=O)c1ccccc1,-0.217
18,CCOC(=O)N1CCN(S(=O)(=O)c2ccc3c(c2)oc(=O)n3C)CC1,0.0985
19,O=C(CCN1C(=O)C2CC=C(Cl)CC2C1=O)NCc1ccccc1 (stereo not given),0.029
20,Cc1ccccc1NC(=O)c1cnn(-c2ccccc2)c1NC(=O)c1ccco1,-0.127
21,CCSc1nnc(NC(=O)c2ccc3c(c2)OCO3)s1,-0.178
22,Cc1c(C(=O)NCc2ccc3c(c2)OCO3)oc2ccccc12,-1.32

row,Structure (SMILES),z-score
1,COC(=O)c1ccccc1NC1=C/C(=N\S(=O)(=O)c2cccs2)c2ccccc2C1=O,0.139
2,CC(C)C[C@H](NC(=O)Nc1cccc(Br)c1)C(=O)O,-0.0217
3,Clc1ccccc1-c1nnc(-c2ccccc2Cl)o1,-0.593
4,Cc1ccc(C(=O)N2CC(=O)Nc3ccc(F)cc3C2c2ccc(F)cc2)cc1[N+](=O)[O-] (stereo not given),-0.191
5,CCOC(=O)N1CCC(NCCNC(=O)c2ccc(Cl)cc2)CC1,-0.483
6,COc1ccccc1/C=C1\SC(=O)N(CCC(=O)NNC(=O)c2ccccc2Cl)C1=O,-0.0914
7,COc1ccc(/C=N/NC(=O)CN2CCSCC2)c(OC)c1,0.144
8,CN(c1ccc(C(=O)NCCSCc2ccco2)cc1)S(C)(=O)=O,-0.396
9,COc1ccc(NC(=O)COC(=O)/C=C/c2ccccc2[N+](=O)[O-])cc1OC,0.461
10,O=c1cc(CO)oc(CN2CCN(c3cccc(C(F)(F)F)c3)CC2)c1O,0.0291
11,CN(c1cccc(NC(=O)COc2ccc(Cl)cc2Cl)c1)S(C)(=O)=O,0.195
12,CCOc1ccc(C2CC(=O)NC(SC)=C2C#N)cc1 (stereo not given),-0.607
13,COc1cccc(/C=C/C(=C2\C(=O)N(c3ccccc3)N=C2C)c2ccc(Br)cc2)c1OC,-0.143
14,O=C(CC(O)(c1ccccc1)C(F)(F)C(F)F)c1cccs1 (stereo not given),-0.39
15,Cc1ccc(-c2cc(C(F)(F)F)n3ncc(C(=O)N4CCCc5ccccc54)c3n2)cc1,0.0537
16,Cc1ccc(-n2[nH]c(C)c(C=Nc3ccc4[nH]c(=O)[nH]c4c3)c2=O)cc1,-0.443
17,Cc1cccc(C(=O)N2CCN(c3ccc([N+](=O)[O-])c(NCc4ccco4)c3)CC2)c1,-0.631
18,Cc1ccc(S(=O)(=O)Cn2nnnc2C(c2ccc(F)cc2)N2CCC(C(N)=O)CC2)cc1 (stereo not given),-0.332
19,CCOCN(C(=O)Cn1c(C(C)O)nc2ccccc21)c1c(C)cccc1CC (stereo not given),0.17
20,CCC(Sc1nc2cc3c(cc2c(=O)n1Cc1ccco1)OCO3)C(=O)NCCOC (stereo not given),-0.33
21,Oc1ccccc1C=Nc1ccccc1-c1nc2ccccc2[nH]1,-0.0503
22,COc1ccc(C2C3C(C)=NN=C3CC(C)(O)C2C(C)=O)cc1 (stereo not given),0.0989

row,Structure (SMILES),z-score
1,COc1ccc(C)cc1NC(=O)CCN1CCCC1,0.135
2,COc1ccc(C(=O)NC2=C(C#N)CCC2)cc1OC,0.296
3,O=C(Nc1nccs1)c1ccc2nccnc2c1,0.133
4,Cc1cc(C)c(C#N)c(Sc2ccc(N)cc2)n1,0.0341
5,CC(C)C(NC(=O)c1ccccc1)C(=O)OCc1cc([N+](=O)[O-])cc2c1OCOC2 (stereo not given),-0.285
6,C/C(=N/NC(=O)c1ccc2nc[nH]c2c1)c1cccs1,-0.26
7,CC(CC(=O)Nc1nncs1)c1ccccc1 (stereo not given),0.374
8,CC(=O)Nc1nonc1NC(C)=O,1.61
9,c1ccc(-c2nn3c(Cn4nnc5ccccc54)nnc3s2)nc1,-0.0917
10,CC1CC(C)CN(C(=O)CSc2nnc(CSc3ncccn3)n2C)C1 (stereo not given),0.853
11,c1cc2c(cc1Nc1nc(-c3ccc4c(c3)OCO4)cs1)OCCO2,0.0369
12,c1ccc(CSc2ncn(-c3ccccc3)n2)cc1,-0.469
13,Cc1cc(C)cc(N2C(=O)c3nccnc3C2=O)c1,-0.13
14,Cc1ccccc1NC(=S)NCc1cccs1,-0.0738
15,Cc1cccc2c1CC(C)(C)NC2=C(C#N)C#N,0.368
16,CCOc1ccc(C(C)=O)cc1N1C(=O)C2C3C=CC(C3=C(C)C)C2C1=O (stereo not given),-0.272
17,CC1=CC(=C(C#N)c2nc3ccccc3s2)C=C(C)N1Cc1ccco1,-2.75
18,Cc1cnc(C(=O)Nc2ccc(F)c(F)c2)cn1,0.772
19,c1n[nH]c(SCCCCSc2ncn[nH]2)n1,-0.449
20,CCN(CC)S(=O)(=O)c1ccc(N2CCCCC2)c(C(=O)Nc2ccccc2N2CCOCC2)c1,-0.22
21,CC(C)NC(=O)C1CC(=O)N(c2ccc(F)c(Cl)c2)C1 (stereo not given),0.128
22,CCOC(=O)c1cc(C#N)c(Oc2ccccc2)nc1-c1ccccc1,-0.996

row,Structure (SMILES),z-score
1,CCS(=O)(=O)N1Cc2ccccc2CC1C(=O)Nc1ccc(C)cc1 (stereo not given),0.251
2,O/N=C1\CCCc2ccc(Cl)cc21,-0.339
3,NS(=O)(=O)c1ccc(NS(=O)(=O)c2ccc(NC(=S)Nc3ccccc3)cc2)cc1,0.672
4,COc1cccc(N2CCN(C(=S)NCCc3ccccc3)CC2)c1,-0.186
5,Cc1nnc(SCCn2c(N3CCCC(C)C3)nc3c2c(=O)[nH]c(=O)n3C)s1 (stereo not given),0.294
6,O=C(Nc1ccccc1)c1cc(-c2ccccc2Cl)no1,-0.171
7,Cc1ccccc1NC(=S)N(CCCN1CCCCC1)Cc1ccco1,-0.915
8,Cc1nn(-c2ccccc2)c2c1C1(C(=O)N(C)c3ccccc31)C(C#N)=C(N)O2 (stereo not given),-0.0421
9,COc1ccc(C(C#N)N2N=C(C)CC2(C)C)cc1OC (stereo not given),0.407
10,Cc1cc(NS(=O)(=O)c2ccc(Nc3nc(-c4sc(C)nc4C)cs3)cc2)no1,0.423
11,Cc1cc(C)n(C(=O)c2ccc([N+](=O)[O-])cc2[N+](=O)[O-])n1,0.594
12,O=C(Nc1ncc(Cc2cccc(Cl)c2)s1)C1=NCCN1,0.267
13,O=C(Nc1cccc(Cl)c1)OCc1cn(-c2ccc(Cl)cc2)nn1,0.722
14,CCOC(=O)c1cc(NC(=O)c2ccc(Cl)cc2)c(=O)oc1-c1ccccc1,0.101
15,Cc1ccc(N(NC(=O)C(O)(c2ccccc2)c2ccccc2)C(=O)CCl)cc1,-0.357
16,COc1ccc(/C=C/C(=O)NC(=S)Nc2cc3oc4ccccc4c3cc2OC)cc1,0.0202
17,O=C(NNC(=O)C(c1ccccc1)c1ccccc1)c1cccs1,0.419
18,COc1ccc(C2COC(=O)C2=N)c(NC(=O)c2ccccc2)c1 (stereo not given),-0.27
19,NS(=O)(=O)c1ccc(-c2ccc(C=NC3CCS(=O)(=O)C3)o2)cc1 (stereo not given),0.815
20,CC(=O)N1N=C(c2ccccc2)CC1c1ccccc1[N+](=O)[O-] (stereo not given),-0.0779
21,O=C(Cn1cc(/C=N/NC(=O)c2ccccc2Br)c2ccccc21)Nc1ccc(F)cc1,0.65
22,Cc1ccc(S(=O)(=O)N(CC(=O)Nc2ccc(Cl)c([N+](=O)[O-])c2)C2CCCCC2)cc1,-0.445

# — PubChem BioAssay AID488969 (Vanderbilt High Throughput Screening Facility, 2010)
